Molecules are shown by their SMILES. Screen size: about 52,000 compounds; about 1,700 (3.3%) were called active. No stated cut-off is given here; in the data, active means survival mostly below about 52% (no sharp cut-off); inactive means mostly above about 56%. This is one part of the list.

For the experiment, the system named is Wild type. The experiment in a line: S. aureus survival, RN4220 and DeltatarO strains – OD600, teichoic acid synthesis inhibitors, primary screen (AID 463173). The note with it: S. aureus RN4220 wild type/DeltatarO growth, OD600, 18 h, active compounds read low, screened at 18.75 µg/mL (by protocol).
Regarding `O=C(Nc1ccc(Cl)cc1Cl)c1cc(S(=O)(=O)N2CCc3ccccc32)ccc1F`, the survival was inactive: 72%.

For the compound `CCOC(=O)c1noc2nc(C)n(CC(=O)Nc3ccccc3F)c(=O)c12`, the survival was inactive: 124%.

Take `CCc1ccc(C2CC(=O)Nc3cc4c(cc32)OCO4)cc1` (centres undefined): the survival is inactive: 78%.

For the compound `Cc1cccc(N2CCN(C(=O)c3c(C)oc4ncnc(N5CCCCC5)c34)CC2)c1C`, the survival was inactive: 67%.

With `Cc1ccc(C)c(Nc2nc3c(S(=O)(=O)c4ccc(C(C)C)cc4)nnn3c3ccsc23)c1`, the survival is inactive: 71%.

In the case of `COc1ccc(S(=O)(=O)n2ccnc2)cc1C(C)(C)C`, the survival is inactive: 69%.

`CCc1ccccc1N1C(=O)N(Cc2ccccc2C)c2ccccc2S1(=O)=O`: the survival was inactive: 69%.

Regarding `CCOc1ccc(CNC(=O)CSc2nnc(C)c3c(C)n(-c4ccccc4)nc23)cc1`, the survival is inactive: 105%.

Regarding `COc1ccc(C(C(=O)NC2CCCC2)N(C(=O)c2ccco2)c2ccc(NC(C)=O)cc2)cc1OC` (centres undefined), the survival is inactive: 108%.

In the case of `Cc1ccccc1CCNC(=O)c1ccc2c(c1)c(C)c(C)n2Cc1ccccc1`, the survival was inactive: 124%.

With `CC(C)CN(CCCNC(=O)CN1C(=O)CSc2ccc(S(=O)(=O)N3CCOCC3)cc21)CC(C)C`, the survival was inactive: 92%.

`COc1ccc(OC)c2sc(N3CCN(C(=O)C4CC4)CC3)nc12`: the survival was active: -6%.

For the compound `COc1ccc(OC)c(-n2cnc3cc(C(=O)NC4CCCCCC4)ccc32)c1`, the survival is inactive: 72%.

As for `CCOc1ccc(NC(=O)CC2C(=O)OCCN2CC)cc1` (centres undefined), the survival was inactive: 59%.

In the case of `COc1ccccc1NC(=O)c1cnc(SCC(=O)N2CCCc3ccccc32)n(C)c1=O`, the survival was inactive: 81%.

With `COc1cc(NC(=O)c2ccccc2)c(OC)cc1NC(=O)CN1CCCCC1`, the survival is inactive: 109%.

Consider `COc1ccc(N2CCN(C(=O)c3cc4ccc5cccnc5c4[nH]3)CC2)cc1`, for which the survival was inactive: 88%.

Take `COc1ccc(-c2cc(C)nc3c(-c4ccc(OC)c(OC)c4)c(C)nn23)cc1`: the survival is inactive: 65%.

Turning to `CSc1ccc(-c2nc3ccc(C)cn3c2Nc2ccccc2C)cc1`, the survival was inactive: 114%.

Regarding `Cc1cccc(-c2nnn3c2nc(NCCc2ccc(S(N)(=O)=O)cc2)c2cc(Cl)ccc23)c1`, the survival was inactive: 89%.

Turning to `CS(=O)(=O)N(CC(=O)NCCc1ccccc1)c1cc(C(F)(F)F)ccc1Cl`, the survival is inactive: 79%.

`N#Cc1cn(CC(=O)NCc2ccccc2)c2ccccc12`: the survival was inactive: 110%.

As to `Cc1cccc(Oc2nc3c(c(=O)n(C)c(=O)n3C)n2C)c1`, the survival was inactive: 129%.

Regarding `CCCCCn1c(=O)[nH]c2cc(C(=O)N3CCN(c4cccc(C)c4)C(C)C3)ccc2c1=O` (centres undefined), the survival was inactive: 59%.

For the compound `CCOC(=O)/C(C#N)=N\Nc1cc(C)cc(C)c1`, the survival was inactive: 97%.

In the case of `O=C(NCC12CC3CC(CC(C3)C1)C2)c1cc2nc(-c3ccccc3)cc(C(F)(F)F)n2n1`, the survival is active: -12%.

Take `CC(NC(=O)c1ccccc1NC(=O)c1nsc2ccccc12)c1ccccc1` (centres undefined): the survival is inactive: 133%.

Consider `Fc1cc(Br)ccc1Nc1c2c(nc3nc(-c4cccs4)nn13)CCCC2`, for which the survival is active: 0%.

For the compound `CNC(=O)c1cc(Nc2nnc(-c3ccc(O)cc3)c3ccccc23)ccc1OC`, the survival was inactive: 132%.

`O=C1CCCc2cc(S(=O)(=O)NCC3CCC(C(=O)Nc4ccccc4F)CC3)ccc2N1` (centres undefined): the survival is inactive: 78%.

Take `COc1ccc(OC)c(CCNc2ncnc3onc(-c4ccc(F)cc4)c23)c1`: the survival is inactive: 119%.

On to `COC(=O)c1ccc(OC)c(Cn2c(=O)n(Cc3ccccc3)c(=O)c3c2c2cc(OC)ccc2n3C)c1`, for which the survival was inactive: 66%.

For `COc1ccc(CN2C(=O)C(C)Oc3ccccc32)cc1` (centres undefined), the survival is inactive: 103%.

For the compound `CC1CCCC(C)N1C(=O)CSc1nc(N)c(-c2ccccc2)c(=O)[nH]1` (centres undefined), the survival was inactive: 113%.

Turning to `CCCCOc1ccc(C(=O)N2CCN(CCc3ccccn3)CC2)cc1`, the survival is inactive: 88%.

Consider `CC(=O)c1ccc(NC(=O)C2=CC(c3ccc4c(c3)OCO4)=NS(=O)(=O)N2C)cc1`, for which the survival was inactive: 107%.

Regarding `O=C(CN1CCC(O)(c2ccccc2)CC1)NC1CCCCC1`, the survival was inactive: 111%.

With `COc1ccc(-c2noc(CCC(=O)NCc3ccc(C)cc3)n2)cc1`, the survival is inactive: 94%.

As for `O=c1n(Cc2cccc(C(F)(F)F)c2)c2ccccc2c2nc(-c3ccccc3)nn12`, the survival is inactive: 86%.

Take `Cc1ccc(-c2ccc(CCC(=O)O)n2-c2cccc(O)c2)cc1`: the survival was inactive: 86%.

Turning to `COc1ccc(-c2ccc(=O)n(CC(=O)Nc3ccc(C)cc3C)n2)cc1`, the survival is inactive: 55%.

Regarding `Cc1ccc(C(=O)Nc2ccc3oc(-c4ccc(C(C)(C)C)cc4)nc3c2)cc1`, the survival is inactive: 75%.

As to `CCCN1C(=O)C(NC(C)=O)c2cc(C)ccc21` (centres undefined), the survival is inactive: 107%.

Consider `Cc1ccc(CNC(=O)CCCCCn2c(=O)c3sccc3n(CC(=O)N(C)c3ccccc3)c2=O)cc1`, for which the survival is inactive: 83%.

As to `CCOC(=O)c1cccc(NC(=O)Cn2ncc3c4ccccc4n(Cc4ccccc4)c3c2=O)c1`, the survival was inactive: 88%.

Regarding `CCc1ccc2oc(C(=O)Nc3cccc(C(F)(F)F)c3)cc(=O)c2c1`, the survival was inactive: 88%.

Take `CSc1nn(Cc2ccc(Cl)cc2)c(N(C(C)=O)C(C)=O)c1S(=O)(=O)c1ccccc1`: the survival was inactive: 57%.

`Cc1ccc(NS(=O)(=O)c2ccc3[nH]c(=O)ccc3c2)cc1N(C)C`: the survival is inactive: 53%.

Regarding `Cc1cccc(Cn2c(=O)n(CCc3ccccc3)c(=O)c3c(C)c(C)sc32)c1`, the survival was inactive: 90%.

Regarding `Cc1ccc(NC(=O)c2cc(C)nc3c2c(C)nn3-c2cccc(Cl)c2C)c(C)c1`, the survival is active: -6%.

As to `C#CCOc1ccc(-c2nnc(Nc3cccc(C)c3)c3ccccc23)cc1`, the survival was inactive: 79%.

For `CCn1cc(C(=O)NCc2ccccc2OC)c(=O)c2cc(S(=O)(=O)N3CCCCC3)ccc21`, the survival was inactive: 91%.

`COc1ccccc1CN1COc2ccc3c(oc(=O)c4ccccc43)c2C1`: the survival was inactive: 95%.

`CCn1c(=O)cc(SCC(=O)NCCc2ccc(Cl)cc2)c2ccccc21`: the survival is inactive: 70%.

For `COc1ccccc1Nc1cc(C(=O)NC2CCCC2)c2ccccc2n1`, the survival is inactive: 79%.

`COc1ccc(/C=C/C(=O)Nc2sc3c(c2C(N)=O)CCCC3)cc1`: the survival was inactive: 72%.

As for `CCOC(=O)c1cnc(NCc2ccccc2OC)c2ccccc12`, the survival is inactive: 80%.

Consider `COc1cccc2sc(=NC(=O)c3ccc(S(=O)(=O)N4CCCCC4)cc3)n(C)c12`, for which the survival is inactive: 93%.

Turning to `COc1ccc(S(=O)(=O)N2CCCCC2)cc1C(=O)Nc1cccc(C(F)(F)F)c1`, the survival is inactive: 93%.

As for `CCOC(=O)C1CCC(CN(Cc2ccc(Cl)cc2)S(=O)(=O)c2ccc(F)c(C(=O)Nc3cccc(F)c3)c2)CC1` (centres undefined), the survival was inactive: 73%.

As to `CCN(CC)C(=O)c1sc2c(c1C)c(=O)n(Cc1ccccc1)c(=O)n2Cc1ccc(Cl)cc1`, the survival is inactive: 73%.

Regarding `NS(=O)(=O)c1cccc(S(N)(=O)=O)c1`, the survival is inactive: 117%.

With `O=c1oc2ccccc2c(O)c1CN1CCCCC1`, the survival is inactive: 73%.

Turning to `COCCNC(=O)c1cc2nc3c(c(C(F)(F)F)n2n1)CCc1ccccc1-3`, the survival was inactive: 102%.

As for `O=C(CCS(=O)(=O)c1nc(-c2ccc3c(c2)OCO3)cc(C(F)(F)F)n1)Nc1ccccc1F`, the survival is inactive: 79%.

With `COc1ccc(Nc2nc3ccccc3c3nnc(C)n23)cc1Cl`, the survival is inactive: 65%.

`CCOc1ccc(C(=O)Nc2ccc(S(=O)(=O)N3CCOCC3)cc2)cc1OCC`: the survival was inactive: 113%.

In the case of `CCN(C(=O)CCn1cnc2onc(-c3ccc(F)cc3)c2c1=O)c1ccc(OC)cc1`, the survival is inactive: 80%.

Regarding `CCc1cccc(-n2nnc(-c3nc(-c4ccccc4Cl)no3)c2N)c1`, the survival was inactive: 98%.

As for `COc1ccc2nc3sc(C(=O)N4CCCC4)c(N)c3cc2c1`, the survival was inactive: 104%.

`Cc1cccc(N2CCN(C(=O)c3cnn(-c4cccc(Cl)c4C)c3C3CCNCC3)CC2)c1C`: the survival is inactive: 66%.

Regarding `Cn1nnc2c(NCCc3ccccc3)ncnc21`, the survival is inactive: 70%.

As to `O=C(NCC(c1cccnc1)N1CCc2ccccc2C1)C(=O)Nc1ccc(Cl)cc1` (centres undefined), the survival is inactive: 49%.

With `Fc1ccc(-c2cn3ccccc3n2)cc1`, the survival is inactive: 108%.

Turning to `Cc1ccc(-c2noc(CSc3nnc(Cc4ccccc4)n3-c3cccc(C)c3)n2)cc1`, the survival was inactive: 61%.

Turning to `Cc1cc(C)c(NC(=O)Cn2c(=O)n(Cc3ccco3)c(=O)c3ccc(C(=O)NC4CCCC4)cc32)c(C)c1`, the survival is inactive: 126%.

As to `Cc1ccc2c(c1)N(CC(=O)NCc1ccccc1Br)C(=O)c1cccnc1O2`, the survival is inactive: 71%.

Take `CC(C)c1ccc(NC(=O)c2cccc3c2C(=O)N(C2CCCCC2)C3)cc1`: the survival was active: 1%.

Consider `CCCc1nc2ccccc2n2c(-c3ccc(C)cc3)c3c(=O)n(C)c(=O)n(C)c3c12`, for which the survival is inactive: 64%.

On to `COc1ccccc1NC(=O)c1c(NC(=O)c2ccco2)sc2c1CCC(C(C)(C)C)C2` (centres undefined), for which the survival was inactive: 96%.

On to `CCSc1ncc(Cl)c(C(=O)Nc2c(C(=O)c3ccc(C)c(F)c3)oc3ccccc23)n1`, for which the survival was inactive: 121%.

With `CC(=O)c1cccc(NC(=O)c2c(N3CCCC3=O)c3cc(F)ccc3n2C)c1`, the survival is inactive: 80%.

For `CCCc1cc(NCc2cccnc2)n2c(nc3ccccc32)c1C#N`, the survival was inactive: 107%.

Turning to `CCOCCCNC(=O)C(c1ccc(C)cc1)N(Cc1cccs1)C(=O)c1ccc(NC(C)=O)cc1` (centres undefined), the survival was inactive: 132%.

On to `CCC(=O)NC(c1ccccc1OC)c1cc(Cl)c2cccnc2c1O` (centres undefined), for which the survival is inactive: 91%.

Take `Cc1ccc(NC(=O)Cn2c(=O)n(CCc3ccccc3)c(=O)c3c4c(sc32)CCCC4)c(C)c1`: the survival is inactive: 95%.

As for `CCNC(=S)NC1CC2CCC1C2` (centres undefined), the survival was inactive: 111%.

On to `CCc1cccc(NS(=O)(=O)c2c(C)nc3sc(CC)nn3c2=O)c1`, for which the survival was inactive: 72%.

Consider `COc1ccc(N2CC(NC(=O)c3cc4ccccc4o3)CC2=O)cc1OC` (centres undefined), for which the survival is inactive: 70%.
